{"source": "the supplement of paper PMC12645437", "about": "“Orthogonal IMiD-Degron Pairs Induce Selective Protein Degradation in Cells” (ACS Chemical Biology, 2025)", "note": "This is one part of the list.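 Further: jurkat cells carrying a lentiviral library of mutant zinc finger degrons fused to EGFP plus mCherry, mCherry+ cells FACS sorted, degron abundance counted by next-generation sequencing.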", "data": [{"biological_target": "no compound (DMSO)", "experiment": "log2 fold change of degron read counts, EGFP-low vs EGFP+ sorted cells; higher = lower degron-EGFP level without compound (poor expression or instability)", "conditions": "compound: DMSO control; 18 h", "values": [{"sequence": "FWCPICGAMFTQKGNLLRHIKL", "log2 fold change of degron read counts": 1.11}, {"sequence": "FLCDQCGAMFTQKGNLLRHIKL", "log2 fold change of degron read counts": -1.8}, {"sequence": "LECNQCGFSCTQKGNLLRHIKL", "log2 fold change of degron read counts": -0.315}, {"sequence": "FECPICGACFTQKGNLLRHIKL", "log2 fold change of degron read counts": -0.884}, {"sequence": "FQCPICGHSFTQKGNLLRHIKL", "log2 fold change of degron read counts": -0.4}, {"sequence": "FDCEVCGACFTQKGNLLRHIKL", "log2 fold change of degron read counts": -1.37}, {"sequence": "FDCNICGASFTQKGNLLRHIKL", "log2 fold change of degron read counts": -1.52}, {"sequence": "FHCEICGHNFTQKGNLLRHIKL", "log2 fold change of degron read counts": -1.67}, {"sequence": "FMCEQCGADFTQKGNLLRHIKL", "log2 fold change of degron read counts": -2.69}, {"sequence": "LWCPICGFKCTQKGNLLRHIKL", "log2 fold change of degron read counts": 1.76}, {"sequence": "FLCNICGAVFTQKGNLLRHIKL", "log2 fold change of degron read counts": -0.153}, {"sequence": "FSCDVCGAVFTQKGNLLRHIKL", "log2 fold change of degron read counts": -1.54}, {"sequence": "FCCEQCGADFTQKGNLLRHIKL", "log2 fold change of degron read counts": -2.46}, {"sequence": "FTCNQCGRIFTQKGNLLRHIKL", "log2 fold change of degron read counts": -0.132}, {"sequence": "FVCDQCGANFTQKGNLLRHIKL", "log2 fold change of degron read counts": -1.73}, {"sequence": "FHCPICGRWFTQKGNLLRHIKL", "log2 fold change of degron read counts": 0.196}, {"sequence": "FTCPQCGAFFTQKGNLLRHIKL", "log2 fold change of degron read counts": 0.377}, {"sequence": "LKCNQCGFGCTQKGNLLRHIKL", "log2 fold change of degron read counts": 0.718}, {"sequence": "FNCNVCGAFFTQKGNLLRHIKL", "log2 fold change of degron read counts": -0.017}, {"sequence": "FICEICGHKFTQKGNLLRHIKL", "log2 fold change of degron read counts": -1.27}, {"sequence": "FTCNQCGALFTQKGNLLRHIKL", "log2 fold change of degron read counts": -0.518}, {"sequence": "FKCEICGRSFTQKGNLLRHIKL", "log2 fold change of degron read counts": -1.73}, {"sequence": "FMCEQCGAYFTQKGNLLRHIKL", "log2 fold change of degron read counts": -0.894}, {"sequence": "FECNICGARFTQKGNLLRHIKL", "log2 fold change of degron read counts": -1.1}, {"sequence": "LECPICGFQCTQKGNLLRHIKL", "log2 fold change of degron read counts": 0.537}, {"sequence": "FSCNQCGADFTQKGNLLRHIKL", "log2 fold change of degron read counts": -1.15}, {"sequence": "FYCPICGAIFTQKGNLLRHIKL", "log2 fold change of degron read counts": 0.837}, {"sequence": "FLCNQCGALFTQKGNLLRHIKL", "log2 fold change of degron read counts": 0.319}, {"sequence": "FFCEQCGAWFTQKGNLLRHIKL", "log2 fold change of degron read counts": -0.262}, {"sequence": "FACPQCGATFTQKGNLLRHIKL", "log2 fold change of degron read counts": -0.761}, {"sequence": "LRCPICGFPCTQKGNLLRHIKL", "log2 fold change of degron read counts": 3.52}, {"sequence": "FKCEQCGAEFTQKGNLLRHIKL", "log2 fold change of degron read counts": -2.12}]}]}
